The supplement of paper PMC3334620
In all, about 33,000 sequences were measured (“E-score (-0.5 to 0.5)”: median about -0.035, highest 2% from about 0.34 on). This is one part of the list.

These sequences were tested against T1, Mot3 (UniProt P54785) (assay: PBM E-score (8-mer binding enrichment) (E-score (-0.5 to 0.5)); higher = stronger / more preferred TF binding; most listed sequences are background and not binding sites). Details: protein concentration: 200 nM; construct: GST-full length.
T1 sequence: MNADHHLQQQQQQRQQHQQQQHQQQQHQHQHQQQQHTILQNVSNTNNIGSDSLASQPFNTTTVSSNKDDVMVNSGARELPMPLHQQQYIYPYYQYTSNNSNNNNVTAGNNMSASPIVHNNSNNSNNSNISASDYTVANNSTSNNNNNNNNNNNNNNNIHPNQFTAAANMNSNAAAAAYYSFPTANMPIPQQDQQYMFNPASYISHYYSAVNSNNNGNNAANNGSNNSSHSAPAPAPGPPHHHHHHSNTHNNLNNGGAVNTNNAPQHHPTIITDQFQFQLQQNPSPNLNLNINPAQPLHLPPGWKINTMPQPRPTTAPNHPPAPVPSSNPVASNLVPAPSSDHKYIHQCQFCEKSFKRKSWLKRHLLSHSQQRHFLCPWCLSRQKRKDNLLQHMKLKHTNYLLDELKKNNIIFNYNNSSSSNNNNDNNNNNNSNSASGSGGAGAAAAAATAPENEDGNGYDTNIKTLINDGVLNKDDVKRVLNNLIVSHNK
Summary of the method: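 Universal all-10-mer Agilent arrays, fresh or stripped once, were converted to double-stranded form by primer extension. GST-tagged yeast transcription factors from PURExpress in vitro transcription/translation, full-length or DNA-binding domain only, were applied at about 100-200 nM and detected with fluorescent anti-GST. After masliner normalisation, the Universal PBM Analysis Suite scored each ungapped eight-base word together with its reverse complement by E-score.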

Sequence | PBM E-score
CGGCAATC | -0.109
GAAAGACA | 0.0377
CGCATGGC | -0.00273
GGTCGGGA | -0.182
CTCATTCC | -0.113
ACATACCA | 0.172
CCGGATCG | -0.243
ACGTAACT | 0.104
AACGTTAT | 0.123
ATTGCGGG | 0.0282
ATTTTGAG | -0.122
CGGTCACC | -0.215
AGCGGGCA | -0.212
CAGTTGCG | -0.124
AAGCTAAA | -0.0059
ACAGTTTG | -0.0633
AATCCACC | -0.179
ACACTGGT | -0.0585
ATAACGTG | 0.229
CCGTACAA | -0.0477
CGAGCCAG | -0.0469
AGCCTATC | -0.23

Sequence | PBM E-score
CAAGCCAG | 0.069
CAAATGGA | -0.0484
ACTGTACG | -0.0297
CATACCAG | -0.231
GCTGGTTA | 0.0678
AAAGTTAG | 0.145
ATGTCGCC | -0.0401
CACAAAAA | 0.147
ATATGAAG | -0.137
ATGTGCAA | 0.03
CACTAGCC | -0.0923
ACGATTAT | 0.0588
AGCAGGTG | 0.167
AACCGCCT | -0.068
GCGCCCCA | -0.192
AACAGCTC | -0.162
AGGAAATG | 0.262
TAAGTAAA | 0.188
AAATCCGT | -0.115
GACTCTCC | -0.167
GACTGACA | -0.0818
TTCCGGAA | -0.148

Sequence | PBM E-score
CAAAGAAA | 0.131
ACCTTGCG | 0.0557
CTACCGGC | -0.145
AGAGTCCA | -0.225
ATTCGGTG | 0.0583
AAGCTACT | -0.029
ACCCCGGG | -0.269
ATTATCGG | -0.144
GGGAGTCA | -0.264
GCTCCATA | -0.293
CGTGCTCC | -0.248
ACCCCATG | 0.106
CTGCAAGA | 0.0551
ATAACCAT | 0.0127
GACAGAAC | -0.0671
ATGAAGGA | 0.224
GCCACCCA | -0.223
ATCAATTG | 0.122
ACCTCGCG | -0.164
CTCTTTGA | -0.0974
ACCTACCG | 0.0568
CGCTGAAG | -0.201

Sequence | PBM E-score
ACGTGCAG | 0.0565
GTTATGAA | 0.159
CAATTGAA | -0.0107
CCGTTGCA | -0.0576
CTGGATGC | -0.174
GAGTCATC | -0.243
AACTCCTT | 0.0524
GGGGATGA | -0.289
AAGTGAGC | -0.16
TAAGCCGA | -0.0394
CCCACACA | -0.142
ACGACCTG | -0.0223
ACTACCTC | -0.0675
GTAAGCTA | -0.0549
ATAAACCC | 0.0128
CAAACAAC | 0.162
ACTTCTGA | -0.101
AGCGTCAG | -0.191
ACTTCGTA | 0.058
CCTGATGA | 0.0626
